# Measured values published in the supplement of paper PMC11417369.
# This is one part of the list.
# System: PfAP2-HC AP2 domain (GST-tagged)
# Experiment: gcPBM binding intensity (ln(normalized median fluorescence intensity)); higher = stronger DNA binding
# Method in brief: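 An Agilent 4 × 180k array carrying primer-extended double-stranded 36-bp intergenic genomic probes and negative controls received GST-tagged P. falciparum DNA-binding domains expressed in E. coli, about 25 μg on average, for 1 h. The binding buffer contained 1× PBS, 1% milk, 0.2 mg/ml BSA, 0.5% salmon testes DNA and 0.03% Triton X-100. Binding intensity is the top Masliner-normalised natural-log median intensity across replicate spots of either probe orientation, read after Alexa488 anti-GST antibody staining and a 488 nm scan.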
row,Sequence,gcPBM binding intensity (ln)
1,TAAGTCAAAACTTTTTTTTCTAAATTTCCATAATTA [GTGCAC_negctrl_site29],9.28
2,TACATAATAATAAGGCGTACATAAAAATTAAAAATT [XGTACX_site8769],9.65
3,AAAACGATTTTTTGCACACACATAATAAGCAGAACA [CACACA_site3871],10
4,TATCTACTTAAATAAAATAAAAATAATAAATAAAAA [TGCATGCA_negctrl_site312],9.5
5,ATAAAACAAAGACACACACACATACACAAAAAAAAA [CACACA_site7752],10.5
6,AATAATCATGATCATAGTACGTATGAATACAAAAAA [XGTACX_site265],9.76
7,ATGTATAATATTTTCACACACAAGAAAAAAGAAAAG [CACACA_site3591],10
8,ACATTATGTCATAAATGTACACATACATATACATAC [XGTACX_site8998],9.74
9,TTTTATTTATTCCTACTTTTTTATTTATTTATTTAA [XGTACX_negctrl_site415],9.55
10,CGTATGTATATATATATACACACTTCTGTGATACGA [CACACA_site1949],9.67
11,GGTATATAAAAATATTGTACTTAAAAAAATATGTAT [XGTACX_site6253],9.56
12,TATTTCACTTTTTGTCTGCACTAAAATTTTATGGTA,9.71
13,TAGATACATAAACACACACACACATACATATATACA [CACACA_site9139],10.6
14,AAAAAAAAAAAAAACACACACATATATATAATATAT [CACACA_site3172],10.8
15,TTTTGACTAATATAATATGTTAAGAATTAATAAATA [XGTACX_negctrl_site35],8.9
16,AAGTATAGTCTTACATATATATATATATATATATAT [GTGCAC_negctrl_site280],9.89
17,CAAAAAGATAAGGTGTGTACGTATTATAATTTTAAA [XGTACX_site531],9.78
18,ATTTAATTTTCCAAATGTACTTATATTTTTATGAAA [XGTACX_site6144],9.38
19,TGAAATGATCTTTAGTTGCACTTAAAAATATATATA,9.43
20,GTAATATTAATATAATGTACAAAATGAAACATATAT [XGTACX_site6219],9.78
21,CAGTTTAATTTACATAGTACATAATATTTTAATTTT [XGTACX_site1793],9.65
22,ACAATATTATTATTTAACCATACACAATTATATGTC [XGTACX_negctrl_site378],9.69

row,Sequence,gcPBM binding intensity (ln)
1,TAAGAAATAAATAGTACACACATAGACACCCACCGA [CACACA_site1516],10.4
2,TTTATTTTTCCATATGCACACACACCGTATATATAA [CACACA_site8293],10.4
3,AAAACAAACACATTTACACACATAAATAAATCAATT [CACACA_site4122],10.3
4,AAAATATAAATATATTTGAACATGGATCAAATGTAA [GTGCAC_negctrl_site626],9.62
5,ATACATACATACATACGTACATATGTATATATATAT [XGTACX_site8498],9.87
6,TATTCATTCTATAAAACACACAAATATTTTTGTATC [CACACA_site666],9.67
7,ATGTTCTATAAATATGAACACACGACATATTATTTA [CACACA_site1799],9.6
8,TGTAGTATCAATTTTTGTACATAACACATATGTATA [XGTACX_site613],9.59
9,TATATTTAATTACATGAACACACATTATATATTTTT [CACACA_site8969],9.78
10,ATATATATATATATATGTACATATTATTCTCATTGT [XGTACX_site6259],9.69
11,ATAAAATATAAAAACGCACACAATTATAAGGGTGTA [CACACA_site177],10.3
12,ATATATATATATAAAGTGCAAAAATGAAAGTAAGAC [GTGCAC_site9850],10.5
13,GTATATGAATGTTCATGTACATAATAAAATATATAA [XGTACX_site250],9.7
14,AAATTAAAATATAATACACACATAAAAAAAAAATCA [CACACA_site5918],9.94
15,CAATTAAACAATTAAACATGCAAAATGATATAATAA [TGCATGCA_site240],9.67
16,AAACAATTTAGACATACACACAAAAATAATATTATA [CACACA_site384],10.3
17,CACGAAAATTTGTAGAGTACATATATAATTAATATA [XGTACX_site3808],9.46
18,ATATATATATATATATGTACATATTGTATTATTCAC [XGTACX_site6511],9.76
19,ATTAAAAAAAAGCTCATCGAAATGTCTTATATAAAT [CACACA_negctrl_site912],9.62
20,TATAATAATATTTATTGTACGATTAGATTAATTCAT [XGTACX_site612],9.47
21,GAGCATTACACATATACACACATATATATAAACATA [CACACA_site5515],10
22,CATATGATATTATTTTGTACTTATTACAAATATGAA [XGTACX_site7929],9.52

row,Sequence,gcPBM binding intensity (ln)
1,ATATATATATATATTTGTACATAATATATATATGCA [XGTACX_site1795],9.57
2,AAAAAAAAATAGAAATGTACAAATTGTAATAATTCC [XGTACX_site6182],9.72
3,ATTTTCCTATTTAGTAGTACTTTTTTCTTTTTTTAA [XGTACX_site5260],9.7
4,TTATATTTCACAAATGTGCACAGATACATATATATA,9.68
5,TCGTCTCAATAATTATAATAAAAAAATTCCTAAGTC [CACACA_negctrl_site338],9.38
6,TTATATGTATATATAGTGCAGAACAAAAGATTATAT [GTGCAC_site9599],9.7
7,TTTTTGTTTCATAAATGTACAAAAACAAACATATTT [XGTACX_site5281],9.51
8,CTTATAAATAAAAGAAGTACATGTTAGTTCAAGTTA [XGTACX_site4183],9.6
9,TTGAAGAAAAAAAAATGTACATAAAAAATATATATG [XGTACX_site428],9.64
10,TTATTATCATCAAATCAAAAAATTCTTTTACCTGTT [CACACA_negctrl_site1348],9.49
11,TATATATATATATGTAGTACCTATAATATTAAATAC [XGTACX_site6118],9.65
12,AAGAAAAGAAACAAAAAAAAAAAGAAATAAAAGGAA [TGCATGCA_negctrl_site171],9.55
13,TATGAATGGTTAAGTACACACATATTAATATAGGTA [CACACA_site7606],9.86
14,ATCAATAAATAAAATGTGCACATAATATATTAATAC,9.9
15,AATTTTTTTTTTTTTTTTTTTTATATATGTGTGTGT [XGTACX_negctrl_site129],11
16,TATAAAAAATATATATATAATATTATATATATATAT [TGCATGCA_negctrl_site260],9.56
17,ATTTTTTTTTTTTTTTGTACGAATAATATGTATGAA [XGTACX_site5318],9.47
18,AAAGGAGGGAATTTTTCTAGGTGTGGAGTGCTACTC [XGTACX_negctrl_site63],10.1
19,TTTCATCTCGTCATTTCTTATATAACTATTTTATAC [CACACA_negctrl_site813],9.81
20,ATTATTGTTTATTGATTTTTGTTAAAATAGGAAATT [GTGCAC_negctrl_site181],9.45
21,ATTATATTTATTAATATGTATATTTAATTATATTTA [XGTACX_negctrl_site376],9.27
22,TTCTTTATTATATGCACACGTACATAAAATATATAT [CACACA_site5157],9.82

row,Sequence,gcPBM binding intensity (ln)
1,CAAATTTTTTATTAAACACACAAACATATATATATA [CACACA_site5122],9.66
2,AAGTGTAAAAGTTACACACACAAACTTGTCATTTTT [CACACA_site4614],9.99
3,AAAAACAAAATATAATGTACACAATATATGTATATA [XGTACX_site2301],9.95
4,AAATATTACTACACTACATGCAGTTTTAGGTACACT [TGCATGCA_site42],9.73
5,AATAAACATAAATACACACACAAAAAAAAAAACATA [CACACA_site4396],10.3
6,TTTTTTTTTTTTTGATGTACTAAAAAAAATGAGCCT [XGTACX_site8535],9.03
7,GATATTAAAATATGTAGTACACATATTATATCATAT [XGTACX_site4167],9.69
8,TTAAAAATTATGGATACACACATATATATATATATT [CACACA_site2383],9.84
9,ATAGTTCCTTTTAATACACACAAAAAAAAAAACATG [CACACA_site3415],9.69
10,TGTAGTCTGGAGAAGAGTACATAGTATCTGGTAACA [XGTACX_site4944],9.63
11,TATAGGTAAATGGACACACACATATTTATATTTATA [CACACA_site7683],10.1
12,TAATGTTTTTATATCACACACAAATATTAAATGATT [CACACA_site543],9.83
13,TTATTAGGTGTATAATGTACATATAATATATATATA [XGTACX_site3398],9.61
14,ATAGAAGCATCACACTGTACATGGATGAACAGAAAA [XGTACX_site7311],9.82
15,TATAATATAAGGATCACACACAAACAGACATATATA [CACACA_site557],10.2
16,ATAATTTCTTTTACATGTACAAAATTTGCTTATATG [XGTACX_site5388],9.78
17,TATATATATACATACATACACACATATATATATATA [CACACA_site4109],9.85
18,ATATATATAATGTGAAGTACATTTTGTTTACATATT [XGTACX_site8405],9.72
19,TTTACACTTTCCAATAGTACATATTAGAATAATTCT [XGTACX_site7734],9.56
20,TTTATTAAATAATCTCTTTTTATTACATAATAATAA [XGTACX_negctrl_site382],9.4
21,GGATTATTTATAGGAGTGCATACATATATATATATA [GTGCAC_site9454],9.87
22,TAATTTATGGAATATGTGCACTTGCTGATCACTTTT [GTGCAC_site9843],9.73
